# Source: paper PMC4336329 (PLoS ONE, 2015)
# Hit rate of the full screen: of about 310,000 compounds, about 2,200 (0.71%) showed an effect of 50% or more. The effect is printed as a negative number. The list shows a part of the results.
# Target: human ether-à-go-go-related gene (hERG) potassium channel (human, UniProt Q12809)
# Assay: primary screen, population patch clamp on CHO cells stably expressing hERG
# Sequence of human ether-à-go-go-related gene (hERG) potassium channel (Q12809 whole entry, looked up): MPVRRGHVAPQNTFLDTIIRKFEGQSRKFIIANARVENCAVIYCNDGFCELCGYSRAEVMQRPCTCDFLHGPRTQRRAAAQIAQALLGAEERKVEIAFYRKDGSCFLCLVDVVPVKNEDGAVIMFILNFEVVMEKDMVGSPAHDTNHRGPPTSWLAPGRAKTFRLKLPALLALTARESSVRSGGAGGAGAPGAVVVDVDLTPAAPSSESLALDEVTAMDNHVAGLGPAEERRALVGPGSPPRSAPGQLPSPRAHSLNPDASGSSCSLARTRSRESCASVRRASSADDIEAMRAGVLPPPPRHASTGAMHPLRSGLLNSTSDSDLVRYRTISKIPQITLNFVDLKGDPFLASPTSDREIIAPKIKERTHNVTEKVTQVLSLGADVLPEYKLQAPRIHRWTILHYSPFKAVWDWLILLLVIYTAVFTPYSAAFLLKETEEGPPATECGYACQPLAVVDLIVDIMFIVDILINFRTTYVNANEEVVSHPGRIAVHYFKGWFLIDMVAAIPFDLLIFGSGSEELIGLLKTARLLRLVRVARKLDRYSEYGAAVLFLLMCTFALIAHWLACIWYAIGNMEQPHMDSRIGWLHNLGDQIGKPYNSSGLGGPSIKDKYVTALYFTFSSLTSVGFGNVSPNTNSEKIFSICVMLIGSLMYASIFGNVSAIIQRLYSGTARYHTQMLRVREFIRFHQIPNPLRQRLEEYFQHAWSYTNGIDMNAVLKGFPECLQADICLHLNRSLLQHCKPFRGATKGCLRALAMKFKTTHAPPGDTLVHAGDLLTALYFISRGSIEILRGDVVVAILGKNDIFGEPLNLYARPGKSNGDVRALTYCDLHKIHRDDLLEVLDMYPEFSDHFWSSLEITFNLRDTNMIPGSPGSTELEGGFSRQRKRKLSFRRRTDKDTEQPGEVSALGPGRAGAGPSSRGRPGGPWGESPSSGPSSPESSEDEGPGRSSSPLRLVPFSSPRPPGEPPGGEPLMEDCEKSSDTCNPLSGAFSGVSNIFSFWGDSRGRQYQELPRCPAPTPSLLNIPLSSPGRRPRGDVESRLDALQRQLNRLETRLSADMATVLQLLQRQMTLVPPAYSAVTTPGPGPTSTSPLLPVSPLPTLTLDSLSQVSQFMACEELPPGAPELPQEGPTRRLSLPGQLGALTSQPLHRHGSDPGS
row,Structure (SMILES),"hERG current change (%, negative = inhibition) at 1uM [%]"
1,CCCn1c(=O)c(-c2ccccc2)c(O)c2ccccc21,3.97
2,CCc1ccccc1NC(=O)c1nnn(CC(=O)Nc2cccc(C)c2)c1N,3.09
3,CCOC(=O)C(C)N1C(=O)S/C(=C\c2ccc(-c3ccccc3C(=O)O)o2)C1=O (centres unmarked),11.5
4,O=C(COC(=O)C1CCC(=O)N1)Nc1cc(Cl)ccc1Cl (centres unmarked),10.7
5,O=C(Nc1c(Cl)ccc2nsnc12)c1ccco1,15.5
6,O=S(=O)(NCc1ccc2c(c1)OCO2)c1cccc(S(=O)(=O)N2CCOCC2)c1,23.6
7,NNC(=S)NCc1ccccc1,1.14
8,COc1ccc(C(=O)CSc2nc3ccccc3n2CC(=O)NC(C)(C)C)cc1,14.9
9,O=C(NCc1ccc(Cl)cc1)C(=O)NCC1CCCN1S(=O)(=O)c1cccs1 (centres unmarked),-0.28
10,CN(C(=O)c1ccco1)C1(c2ccccc2Cl)CCCCC1=O (centres unmarked),13.1
11,O=C(Nc1ccc2c(c1)OCO2)C1CCCN(S(=O)(=O)Cc2ccccc2)C1 (centres unmarked),7.32
12,CC(=O)c1ccc(NC(=O)CSc2ccc(-c3ccc4c(c3)OCO4)nn2)cc1,5.75
13,O=C1OC(CCl)CN1Cc1c(Cl)cccc1Cl (centres unmarked),4.61
14,O=C(NC1CCCC1)C1CCCN(S(=O)(=O)c2ccc(F)cc2)C1 (centres unmarked),15.3
15,FC(F)(F)c1cc(N2CCN(Cc3ccccc3)CC2)c2ccccc2n1,11.8
16,N#C[C@@H]1[C@@H]2C(=O)N(c3ccc4c(c3)OCCO4)C(=O)[C@@H]2C2c3ccccc3C=CN21 (some centres unmarked),-3.16
17,Cc1ccc(NC(=O)c2cc(-c3ccc(C)o3)nc3ccccc23)nc1,11.8
18,Cc1ccc(/C=N\NC(=O)COc2ccc(C)cc2[N+](=O)[O-])cc1,13.1
19,CCOC(=O)C1CCN(C(=O)COc2ccc(N(C)S(=O)(=O)c3ccc(OCC)cc3)cc2)CC1,11.1
20,COc1ccc(CNCC2COc3ccccc3O2)cc1.O=C(O)C(=O)O (centres unmarked),4.11
21,CCOC(=O)c1c(NC(=O)C2C3C=CC(C3)C2C(=O)O)sc2c1CCCC2 (centres unmarked),8.1
22,CCCOc1cccc(-c2cc(C(=O)NN)c3ccccc3n2)c1,4.13

row,Structure (SMILES),"hERG current change (%, negative = inhibition) at 1uM [%]"
1,O=C(CN1C(=O)COc2ccccc2C1=O)c1ccc2c(c1)OCCO2,12.5
2,Oc1ccc(-c2cc(-c3ccc(O)cc3)nc(-c3ccccc3)n2)cc1,12.1
3,COc1ccccc1NC(=O)NC1(C(=O)NCC2CCCO2)CCCCC1 (centres unmarked),13.6
4,CC1(C)CCC(=O)N2CC[C@H]3C[C@H](OC(=O)Nc4ccc(Br)cc4)C[C@@H]1[C@H]32,9.77
5,CCOC(=O)C1CCCCN1C(=O)CCc1c(C)nc2cc(-c3ccccc3)nn2c1C (centres unmarked),-14
6,O=C(Nc1cccc(Cl)c1)Nc1cc(S(=O)(=O)N2CCOCC2)ccc1N1CCCC1,9.33
7,NCCCNC(=O)Cn1c(=O)c2c3c(sc2n(Cc2ccccc2)c1=O)CCCC3,14.1
8,Cc1ccc(NC(=O)C2CC(=O)N/C(=N/N=C/c3ccco3)S2)cc1C (centres unmarked),-2.7
9,COc1ccc(S(=O)(=O)N2CCN(C(=O)CN3C(=O)NC4(CCCC4)C3=O)CC2)cc1,13.9
10,N/C(=N\OC(=O)c1ccco1)c1ccc(Cl)cc1,9.87
11,COc1cc(C)c(C(=O)Oc2cc(C)c(C(=O)O)c(O)c2C)c(O)c1C,5.04
12,COc1ccc(-c2nc(CSCC(=O)N3CCN(C)CC3)c(C)o2)cc1OC,11.9
13,COc1ccccc1C1C(C(N)=O)=C(C)Nc2nc(-c3ccc(Cl)cc3)nn21 (centres unmarked),1.88
14,COc1ccc(NC2=C3CCCC=C3N(c3ccc(OC)cc3)C2=O)cc1,9.41
15,COc1ccccc1NC(=O)c1ccc(N2CC3CC(C2)c2cccc(=O)n2C3)c(NC(=O)c2cccnc2)c1 (centres unmarked),8.07
16,O=c1c2c(nc3cc(-c4cccc(Cl)c4)[nH]n13)CCCC2,19.6
17,CN(c1ccc(OCC(=O)N2CCN(c3ccc(F)cc3)CC2)cc1)S(=O)(=O)c1cccs1,-26.4
18,O=C(Nc1cc(C(F)(F)F)ccc1F)C1CCC1,2.54
19,Cn1cc(-c2nnnn2-c2ccccc2)c(=O)c2ccccc21,1.73
20,Cn1c(CCC(=O)Nc2ccccc2F)nnc1SCC(=O)Nc1ccccc1Cl,9.27
21,COc1ccc(CCNC(=O)c2cc(-c3cc(Cl)cc(Cl)c3)oc2C)cc1,-10.6
22,COc1ccc2c(=O)c(-c3cnn(-c4ccccc4)c3)c(C)oc2c1,6.28

row,Structure (SMILES),"hERG current change (%, negative = inhibition) at 1uM [%]"
1,O=C(Nc1cccc(S(=O)(=O)N2CCOCC2)c1)c1cn(-c2ccccc2)nc1-c1ccccc1,4.82
2,O=C(N/N=C/c1cccnc1)C1CC1(c1ccccc1)c1ccccc1 (centres unmarked),3.24
3,C=CCNC(=O)c1ccc(C2SCC(=O)N2Cc2ccccc2)cc1 (centres unmarked),6.29
4,CN(Cc1ccccc1NCC(=O)Nc1ccccc1C#N)C1CCCCC1,17.3
5,CCn1c(=N)n(CC(O)COc2cccc(C)c2)c2ccccc21.Cl (centres unmarked),-16
6,Cc1cc(C(=O)N2CCc3ccccc32)n(-c2ccccc2)n1,8.48
7,Cn1c(CN2CCCCC2)nc2cc(NC(=O)c3ccccc3Cl)ccc21,11.2
8,CCN(CC)C(=O)c1ccc(C(=O)Nc2ccc(F)cc2)cc1,10.3
9,CCN(CC)S(=O)(=O)c1cccc(C(=O)N[C@H](C(=O)NCc2ccccc2F)C(C)C)c1,8.99
10,COC(=O)c1ccc(S(=O)(=O)N2CCC(O)CC2)n1C,3.92
11,Cc1ccc(CNc2oc(-c3ccco3)nc2S(=O)(=O)c2ccccc2)cc1,-13.5
12,Cc1noc(C)c1C(=O)N1CCN(c2ccccc2O)CC1,16
13,Cc1ccc(N(C(=O)C2CCC(=O)N2)C2(C(=O)NC3CCCCC3)CCCCC2)cc1 (centres unmarked),2.06
14,CCc1ccc(Oc2coc3cc(O)ccc3c2=O)cc1,12.4
15,CC(NC(=O)c1cccs1)c1nnc(SCc2ccc(Cl)cc2Cl)n1C (centres unmarked),-9.16
16,O=C(NCc1ccc(Cl)cc1)c1n[nH]c([N+](=O)[O-])c1Cl,0.933
17,COc1ccc(Cn2c(=S)[nH]c3cc(C(=O)NCc4cccnc4)ccc3c2=O)cc1,13.5
18,O=C1CCN1C1(C(=O)NC2CCCCC2)CCCC1,12.1
19,CC(=O)c1c(N2CCN(c3cccc(Cl)c3)CC2)nc(=S)n(-c2ccccc2)c1C,5.5
20,COc1ccc(OC)c(C2C(C(C)=O)=C(O)C(=O)N2c2ccc(O)cc2)c1 (centres unmarked),14.9
21,O=C1C(=O)c2cccc3cccc1c23,8.07
22,NC(=O)C1(N2CCCCC2)CCN(Cc2ccc(F)cc2)CC1,7.31

row,Structure (SMILES),"hERG current change (%, negative = inhibition) at 1uM [%]"
1,CC(C)c1ccc(NS(=O)(=O)c2ccc3c(c2)NC(=O)CO3)cc1,5.53
2,COc1cccc(/C=N/Nc2ccc(Cl)nn2)c1OC,12.2
3,Cc1ccc(S(=O)(=O)N2[C@@H](c3cccc(Cl)c3)C(C(=O)O)=CC[C@H]2c2cccc(Cl)c2)cc1,14.2
4,Cc1ccc(CN2CCN(/N=C/c3ccc(C)s3)CC2)cc1,-1.18
5,CC(C)(C)NC(=S)N/N=C\c1ccc(-c2ccc([N+](=O)[O-])cc2)o1,13.3
6,COc1cc([N+](=O)[O-])c2ncsc2c1,18.4
7,CC(NC(=O)C1(S(=O)(=O)c2ccc(Cl)cc2)CC1)c1ccccc1 (centres unmarked),2.26
8,Cc1ccccc1OCCC(=O)Nc1ccccc1C(=O)NC1CC1,11.4
9,CCn1c(SC(=O)NC2CCCCC2)nnc1-c1cccs1,15.1
10,Cc1nnc(SCC(=O)Nc2ccc(N3CCOCC3)cc2)n1-c1ccccc1,-3.88
11,CCN(CC)C(=O)c1ccc2c(=O)n(Cc3ccc4c(c3)OCO4)c(=S)[nH]c2c1,9.77
12,COc1ccc(C(=O)Nc2ccccc2N2CCOCC2)cc1Br,6.16
13,[O-][N+]12CCCCC1CCCC2CO (centres unmarked),12.1
14,Cc1ccc(C)c(NC(=O)COc2cccc3c2CCN(Cc2ccccc2C)C3=O)c1,19.1
15,Cc1ccc(S(=O)(=O)N/N=C\c2cn(CC(N)=O)c3ccccc23)cc1,8.61
16,O=C(CSc1ccccc1)Nc1ccc(C(=O)Nc2cccc(O)c2)cc1,9.45
17,COc1ccc(CN(Cc2cc3cc(C)ccc3[nH]c2=O)C(=O)N(C)C)cc1,8.1
18,CCn1c(SCC(=O)NC2CCCCC2)nnc1C(C)NC(=O)c1ccccc1F (centres unmarked),7.11
19,CC(C)(C)OC(=O)N[C@@H](C(=O)OC(C)(C)C)c1ccc2c(c1)OCO2,13.5
20,CC(=O)c1cccc(NC(=O)c2cc(-c3ccco3)on2)c1,6.53
